Measured values published in publication PMC4336329 (PLoS ONE, 2015).
In all, about 310,000 compounds went through this assay and about 14,000 (4.5%) showed an effect of 50% or more. Effects have a minus sign here. Some of the results follow.

The compounds below were run against human ether-à-go-go-related gene (hERG) potassium channel (human, UniProt Q12809) (assay: primary screen, population patch clamp on CHO cells stably expressing hERG).
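Also: peak tail current of the secondary pulse compared with the same well before compound.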

human ether-à-go-go-related gene (hERG) potassium channel, sequence (Q12809 whole entry, looked up): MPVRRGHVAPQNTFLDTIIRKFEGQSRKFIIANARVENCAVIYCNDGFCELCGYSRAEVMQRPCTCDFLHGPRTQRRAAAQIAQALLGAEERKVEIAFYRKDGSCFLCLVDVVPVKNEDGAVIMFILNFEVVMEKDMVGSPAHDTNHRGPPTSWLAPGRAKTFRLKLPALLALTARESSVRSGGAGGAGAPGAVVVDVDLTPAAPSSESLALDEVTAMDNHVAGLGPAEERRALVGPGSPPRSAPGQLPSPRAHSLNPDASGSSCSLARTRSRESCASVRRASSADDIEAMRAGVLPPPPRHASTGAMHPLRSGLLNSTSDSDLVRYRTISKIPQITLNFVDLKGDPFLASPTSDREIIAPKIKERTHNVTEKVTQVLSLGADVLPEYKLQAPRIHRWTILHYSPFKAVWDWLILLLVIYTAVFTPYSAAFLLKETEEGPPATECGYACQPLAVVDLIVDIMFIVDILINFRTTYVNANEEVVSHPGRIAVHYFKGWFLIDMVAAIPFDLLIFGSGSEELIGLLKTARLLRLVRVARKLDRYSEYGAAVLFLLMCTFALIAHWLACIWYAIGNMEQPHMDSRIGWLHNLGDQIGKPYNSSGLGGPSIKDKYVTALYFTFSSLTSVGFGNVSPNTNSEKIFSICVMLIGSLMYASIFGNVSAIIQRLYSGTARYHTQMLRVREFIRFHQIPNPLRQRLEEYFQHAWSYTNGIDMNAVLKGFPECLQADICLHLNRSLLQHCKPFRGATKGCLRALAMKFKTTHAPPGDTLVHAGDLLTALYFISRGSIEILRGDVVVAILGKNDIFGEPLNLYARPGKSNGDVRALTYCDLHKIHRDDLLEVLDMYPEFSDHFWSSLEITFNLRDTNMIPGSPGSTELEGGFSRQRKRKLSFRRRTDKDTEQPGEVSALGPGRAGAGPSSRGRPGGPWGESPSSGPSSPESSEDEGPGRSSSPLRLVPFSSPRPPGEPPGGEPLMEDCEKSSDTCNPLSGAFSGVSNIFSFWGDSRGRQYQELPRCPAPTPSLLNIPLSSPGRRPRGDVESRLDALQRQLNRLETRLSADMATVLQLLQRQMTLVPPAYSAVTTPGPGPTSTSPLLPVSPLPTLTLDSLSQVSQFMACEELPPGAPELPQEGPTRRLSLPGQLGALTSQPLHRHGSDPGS

| Structure (SMILES) | hERG current change (%, negative = inhibition) at 10uM |
| --- | --- |
| NC(=O)c1ccc(NC(=O)CSc2cn(CC(=O)N3CCOCC3)c3ccccc23)cc1 | 20.8% |
| Cc1ccc(S(=O)(=O)c2c(C(=O)c3ccccc3)cnc3cc4c(cc23)OCCO4)cc1 | 13.7% |
| CC(C)CN=Cc1c(O)c([N+](=O)[O-])cc2oc3c(c12)CCCC3 | 0.113% |
| O=C(O)c1ccc(Cl)c(N2C(=O)Nc3ccccc3N2O)c1 | 22.9% |
| COC(=O)c1[nH]c2ccc(C)cc2c1NC(=O)C(C)N1CCN(C2CCCCC2)CC1 (centres unmarked) | -77% |
| Cc1c(CCC(=O)N2CCC(C(=O)NCCCCCC(=O)O)CC2)c(=O)oc2cc3oc4c(c3cc12)CCCC4 | 3.56% |
| C=CCOc1ccc(/C=N/NC(=O)C2CCCC2)cc1OCC | 0.832% |
| COc1cccc(C(=O)c2cc3cc(Cl)ccc3[nH]2)c1 | 21.2% |
| Cc1ccc(NC(=O)N2CCC(NC(=O)c3cccc(F)c3)CC2)cc1 | -15.3% |
| COc1cccc(CNc2cnc3ccccc3c2)c1O | 5.72% |
| O=c1c2ccccc2n(Cc2ccccc2F)c(=O)n1Cc1ccccc1F | 5.76% |
| COC(=O)[C@H](CC(C)C)NS(=O)(=O)N[C@@H](CC(C)C)C(=O)OC | 16.9% |
| CSc1nc(=NC(C)=O)ss1 | 18.3% |
| COc1ccc(CN2C(=O)c3cccnc3C2=O)cc1S(=O)(=O)N1CC(C)Oc2ccccc21 (centres unmarked) | -28.1% |
| Cc1cc(N2CCCC2)nc(-c2ccccc2O)n1 | -1.15% |
| Cc1cc(C)c(C(=O)NCCCN2CCOCC2)c(C)c1 | 7.95% |
| CCOc1ccc(-n2c(SCC(=O)Nc3ccc4c(c3)OCO4)nc3ccccc3c2=O)cc1 | 11.1% |
| COc1ccccc1C(=O)NCC(=O)NNC(=O)C1COc2ccccc2O1 (centres unmarked) | 2.49% |
| CCOC(=O)CCCCC(=O)c1[nH]c(=O)[nH]c1CSCCO | 10.4% |

| Structure (SMILES) | hERG current change (%, negative = inhibition) at 10uM |
| --- | --- |
| O=C(NCC1CCCO1)c1cccc(NC(=O)c2ccccc2)c1 (centres unmarked) | 8.62% |
| CCn1ncc2c1C(=O)NC1c3ccccc3C(=O)N21 (centres unmarked) | 3.28% |
| O=C(NCCCn1ccnc1)/C(=C\c1cccnc1)NC(=O)c1cccc(Br)c1 | -0.509% |
| CC(C)(C)OC(=O)N1CCC(C(=O)N2CCCCCC2)CC1 | 11.6% |
| [Cl-].c1ccc(-[n+]2nc(Nc3cccc4ccccc34)sc2-c2c3ccccc3cc3ccccc23)cc1 | 18% |
| Cc1ccc2c(c1)N(C(=O)CCC(=O)NCCN1CCOCC1)CCO2 | -5.63% |
| COc1cccc(/C=C/c2onc(C)c2S(=O)(=O)N2CCC(C(=O)NC3CCCCCC3)CC2)c1 | 6.49% |
| Cc1ccc(NC(=O)CCN2C(=O)c3ccccc3S2(=O)=O)cc1F | -2.5% |
| O=C1CCN(c2ccc([N+](=O)[O-])cc2F)CC1 | 10.5% |
| COc1ccc(-c2nnc(NC(=O)c3ccc(F)cc3)o2)cc1 | 2.78% |
| CC(C)CCn1nnnc1CN1CCN(c2ccc(F)cc2)CC1 | -19.2% |
| CC(Cc1cccs1)NC(=O)NC1CCCCC1 (centres unmarked) | 4.12% |
| CC(=O)Nc1nc2ccc(-c3nc4ccccc4o3)cc2s1 | 2.79% |
| O=C(Nc1ccc(Cl)cc1)c1csc(Cc2ccccc2)n1 | 9.91% |
| C/C(Cn1nc([N+](=O)[O-])cc1C)=N\NC(=O)c1ccc(C(C)(C)C)cc1 | -38.9% |
| CCCCn1c(-c2cccc3ccccc23)nc2cc3[nH]c(=O)c(C(C)C)nc3cc21 | -0.565% |
| O=P(c1ccccc1)(c1ccccc1)C(O)c1ccc(Br)cc1 (centres unmarked) | 26.3% |
| Nc1cccc2c1C(=O)N(C(=O)c1ccc(S(=O)(=O)N3CCCCCC3)cc1)C2=O | -5.3% |
| O=[N+]([O-])c1cc(C(F)(F)F)cc([N+](=O)[O-])c1NCCCN1CCOCC1 | -30.6% |

| Structure (SMILES) | hERG current change (%, negative = inhibition) at 10uM |
| --- | --- |
| Cc1ccc(NS(=O)(=O)c2cc(C(=O)NCc3ccccn3)ccc2Cl)cc1 | 1.61% |
| COc1ccc(N2CCN(C(CNC(=O)C(C)(C)C)c3ccco3)CC2)cc1 (centres unmarked) | -11% |
| Cc1onc(-c2ccccc2)c1C(=O)Nc1ccncc1 | 26.9% |
| CC(=O)N1CN2CN(C1)CN(C(C)=O)C2 | 2.45% |
| COc1ccc(N2C(=O)NC(=O)/C(=C/c3ccc4c(c3)Cc3ccccc3-4)C2=O)cc1 | 5.74% |
| CCC(=NCCCN(CC)CC)c1c(O)n(-c2ccccc2)c(=O)[nH]c1=O | -4.73% |
| CC(C)CN1CCC(=O)N(CCOc2ccccc2)CC1 | 13.1% |
| COC(=O)c1nc2ccccc2s1 | 6.89% |
| COc1ccc(C(=O)NCc2nnc(SCC(=O)N3CCC(C)CC3)o2)cc1OC | 8.24% |
| CCc1c(C(=O)NNC(=S)NCc2ccccc2)csc1C | -2.33% |
| O=C(CSc1nc2ccccc2c(=O)n1-c1ccccc1)N1CCC1 | 15.8% |
| CC1=C(C(=O)OCc2ccccc2)C(c2ccoc2)C(C#N)=C(N)O1 (centres unmarked) | 4.45% |
| CCc1ccc(CN(C)CC(=O)Nc2ccccc2[N+](=O)[O-])cc1 | -3.65% |
| CP(=O)(COC(=O)c1ccccc1)COC(=O)c1ccccc1 | -2.14% |
| O=C(NCCN1CCCc2ccccc21)C1CCC(=O)N(CCc2ccccc2)C1 (centres unmarked) | 1.86% |
| Nc1ccc(-c2nc(-c3ccccc3)nc3ccccc23)cc1 | 5.34% |
| COCCn1c(SCC(=O)Nc2cc(C(C)(C)C)nn2-c2ccccc2)nc2ccccc2c1=O | -4.39% |
| CCN(CC)CCN(C(=O)/C=C/c1cccs1)c1nc2ccc(F)cc2s1.Cl | -34.4% |
